Reference: ChEMBL document CHEMBL1201862, “PubChem BioAssay data set” (2004)

Each compound was assayed on NCI-H322M (assay: NCI tumour cell line growth inhibition, 48 h).

Row | Structure (SMILES) | GI50
1 | COc1cc2c(NCCN(C)C)nc3c4cc5c(cc4ccc3c2cc1OC)OCO5 | inactive: 3.05 µM
2 | NCCNS(=O)(=O)c1ccc(N)cc1 | inactive: > 100 µM
3 | c1cc(CCN2CCCCC2)ccn1 | inactive: > 100 µM
4 | Oc1ccccc1-n1nc2ccc3nonc3c2n1 | inactive: > 100 µM
5 | O=C(c1ccco1)N(C(=S)OCCOc1ccccc1)c1ccccc1 | inactive: 22.4 µM
6 | CC(C)(C)OC(=O)N1CCC(C(=O)O)CC1 | inactive: > 100 µM
7 | O=C1c2ccccc2C(=O)c2c(Nc3ccc4c5c(cccc35)C(=O)c3ccccc3-4)cccc21 | inactive: > 100 µM
8 | Cc1ccc(S(=O)(=O)OCC(=O)O)cc1 | inactive: > 100 µM
9 | O=C(O)/C=C/C(=O)Nc1cccc2c1-c1ccccc1C2=O | inactive: 13.9 µM
10 | Cc1cc2nc3c(N)nn(CCN(C)C)c3nc2cc1C | inactive: 43.9 µM
11 | CCn1c2c(c3ccccc31)[C@@H](c1ccc(Cl)cc1)CC1C(=O)N(c3ccccc3)C(=O)C21 (stereo partly specified) | inactive: 72.1 µM
12 | CCOC(=O)Cc1c(C)c2ccc(OC(C)=O)c(OC(C)=O)c2oc1=O | inactive: 35.7 µM
13 | Nc1c(C(=O)O)nnc2ccc(Cl)cc12 | inactive: > 100 µM
14 | C/C(=C/CC[C@]1(CO)CC[C@]2(CO)[C@H](CC[C@@H]3[C@@]4(C)CC[C@H](OC5OCC(O)C(O)C5OC5OC(CO)C(O)C(O)C5O)C(C)(C)[C@@H]4CC[C@]32C)[C@H]1O)CO (stereo partly specified) | inactive: > 100 µM
15 | O=C(O)C1(CC(CCCN2CCCCC2)c2ccccc2)CCCC1 (stereo unspecified) | inactive: > 100 µM
16 | COc1cc(C2=C(c3cc(OC)c4ccccc4c3OC)C(=O)c3ccccc3C2=O)c(OC)c2ccccc12 | inactive: 82.2 µM
17 | COc1cc(/C=C/C(=O)Oc2ccc(NC(C)=O)cc2)ccc1C(=O)O/C=C/c1ccccc1 | inactive: > 100 µM
18 | CC(=O)Nc1ccc2c(C)c3c4ccccc4n(C)c3nc2n1 | inactive: 24.5 µM
19 | NC1=NC(Cn2nc(-c3ccccc3)c3ccccc3c2=O)=NNC(=O)N1 | inactive: > 100 µM
20 | CC(C)NCC(O)c1ccc(OCc2ccccc2)c(OCc2ccccc2)c1-c1ccccc1 (stereo unspecified) | inactive: 1.63 µM
21 | O=C1C(c2ccccc2)=C(c2ccccc2)C1(Cl)Cl | inactive: 11.3 µM
22 | Oc1ncnc2c1nnn2CCCCCCCCCCCCn1nnc2c(O)ncnc21 | inactive: > 100 µM
23 | Cc1nc(N)sc1C(=O)/C=C\c1ccc2c(c1)OCO2 | inactive: > 100 µM
24 | O=c1ccn([C@@H]2C[C@H](CO)C[S+]([O-])C2)c(=O)[nH]1 (stereo partly specified) | inactive: > 100 µM

Row | Structure (SMILES) | GI50
25 | Cc1ccc(N2C[N+](c3ccccc3)=NC(c3ccccc3)=N2)cc1 | inactive: 46.7 µM
26 | Cc1ccccc1C(C#N)C(=O)C(=O)Nc1nc([N+](=O)[O-])cs1 (stereo unspecified) | inactive: > 100 µM
27 | O=c1ccn(C2OC(CN(O)CCC3C(CO)OC(n4ccc(=O)[nH]c4=O)C3O)C(O)C2O)c(=O)[nH]1 (stereo unspecified) | inactive: > 100 µM
28 | CCCN1CN(c2ccccc2)C2(CCN(CCCC(=O)c3ccc(F)cc3)CC2)C1=O | inactive: 3.84 µM
29 | Cc1cc(C)nc(NS(=O)(=O)c2ccc(Nc3c4ccccc4nc4c(C(=O)Nc5ccc(S(N)(=O)=O)cc5)cccc34)cc2)n1 | inactive: 79.6 µM
30 | O=C1/C(=C\c2ccc(Cl)cc2)N=C(c2ccccc2)N1n1c(=O)cn[nH]c1=S | inactive: > 100 µM
31 | COc1ccc(OC2OC(CO)C(O)C(O)C2O)cc1 (stereo unspecified) | inactive: > 100 µM
32 | CC(=O)O/N=C/c1cc2c(cc1Br)OCO2 | inactive: > 349 µM
33 | Ic1cc2c(cc1C1SCCCS1)OCO2 | inactive: > 100 µM
34 | CN1CCN(CCCCN2c3ccccc3Sc3cc(N=[N+]=[N-])ccc32)CC1 | inactive: 2.31 µM
35 | CN1C(=O)[C@@H]2N(CSC2(C)C)C1=S | inactive: > 100 µM
36 | O=C(Nc1ccc(Cl)cc1Cl)C1C(=O)C(=O)N(c2ccc(Cl)cc2Cl)C1=O (stereo unspecified) | inactive: > 100 µM
37 | CCOC(=O)c1ccc(C(=O)/C(C#N)=C2\CCCN2)n1C | inactive: > 100 µM
38 | CCOc1ccc(NC(=O)/C(=N\N)C(C(=O)OC)c2nc3ccc(Cl)cc3nc2O)cc1 (stereo unspecified) | inactive: > 100 µM
39 | O=C(CCC=C(S(=O)(=O)c1ccccc1)S(=O)(=O)c1ccccc1)c1ccccc1 | inactive: 12.3 µM
40 | CSc1c(C#N)c(O)n(-c2ccc(Cl)cc2)c(=O)c1C#N | inactive: 46.3 µM
41 | C#C[C@]1(O)CC[C@H]2[C@@H]3CCC4=C/C(=N/CCOC(=O)c5cccc6cc7ccccc7nc56)CC[C@@H]4[C@H]3CC[C@@]21C | inactive: 26.2 µM
42 | c1ccc2c(c1)SC1=C(SC(=C3SC4=C(S3)Sc3ccccc3S4)S1)S2 | inactive: > 100 µM
43 | Cc1cc(O)nc(NN2C(Cl)C(=O)C2c2cccc(O)c2)n1 (stereo unspecified) | inactive: 24.4 µM
44 | COc1ccccc1-c1nc(-c2ccccc2O)n[nH]1 | inactive: > 100 µM
45 | COc1c(O)c2c3c(c(C)cc(O)c3c1O)C(=O)C(O)(C(C)(C)C(C)=O)C2=O (stereo unspecified) | inactive: > 100 µM
46 | CC(=O)OCc1c2ccccc2c(C)c2c1cc(F)c1ccccc12 | inactive: 46.7 µM
47 | C=C1CC2(CC(c3ccccc3C)OC(c3ccccc3C)C2)OC1=O (stereo unspecified) | inactive: 15 µM
48 | CN(C)C(=S)SCC(=O)Nc1ccccc1 | inactive: > 100 µM

Row | Structure (SMILES) | GI50
49 | O=C1C(=O)N(C2C3CC4CC(C3)CC2C4)C(=O)C(=O)C1c1nc2ccccc2o1 (stereo unspecified) | inactive: > 100 µM
50 | O=c1c2cc(Br)ccc2n(C2OC(CO)C(O)C(O)C2O)c(=S)n1-c1ccccc1 (stereo unspecified) | inactive: > 100 µM
51 | Nc1ccc(CCN2CCN(CCCc3ccccc3)CC2)cc1 | inactive: > 100 µM
52 | COc1ccccc1/C=C/c1cnccn1 | inactive: > 10 µM
53 | Cn1c(-c2cccs2)cc(-c2cccs2)c1-c1ccsc1 | inactive: > 100 µM
54 | O=C(CCC(C(=O)OCc1ccccc1)C(=O)OCc1ccccc1)Nc1ccc(OCc2ccccc2)cc1 | inactive: 1.16 µM
55 | COc1cc(C=C2N=C(c3ccccc3)N(n3c(-c4ccccc4)nc4ccccc4c3=O)C2=O)cc(OC)c1OC | inactive: 20.8 µM
56 | C[N+](C)(N)Cc1nc(-c2ccc(Cl)cc2)no1 | inactive: > 100 µM
57 | CC[N+](C)(CC)CCNC(=O)C(O)(c1ccccc1)c1ccccc1 | inactive: > 10 µM
58 | CC1(C)OCC(COC(=O)C=[N+]=[N-])O1 (stereo unspecified) | inactive: > 100 µM
59 | Cc1nc(Nc2ccc(Cl)c(Cl)c2)sc1C(/C=C/c1ccc2c(c1)OCO2)=N/Nc1ccc([N+](=O)[O-])cc1[N+](=O)[O-] | inactive: > 100 µM
60 | COC(=O)C1C(OC(=O)c2ccccc2)CC2CCC1N2C(N)=O (stereo unspecified) | inactive: > 100 µM
61 | CCO/S(=N/S(=O)(=O)c1ccccc1)c1ccccc1[N+](=O)[O-] (stereo unspecified) | inactive: > 100 µM
62 | CC1(C)N=c2c(ncn2-c2ccccc2)=C(C(N)=O)N1 | inactive: > 100 µM
63 | O=c1c([Se]c2coc3ccccc3c2=O)coc2ccccc12 | inactive: 3.33 µM
64 | CCOC(=O)/C(=C\n1c(=O)sc2ccccc21)C(=O)c1ccccc1 | inactive: > 100 µM
65 | COc1ccc2c(c1)N=C1CSC(c3cccc(Br)c3)N1C2 (stereo unspecified) | inactive: 18.5 µM
66 | CC1(O)CC2C(CC1SC1CC3C(CC1(C)O)C3(C)C)C2(C)C (stereo unspecified) | inactive: > 100 µM
67 | CCOc1ccc2nc3nc(O)nc(C)c3c(NC(C)(CO)CO)c2c1 | inactive: > 100 µM
68 | Cn1c2ccc(Cl)cc2c2ccc3c(c21)C(=O)C=CC3=O | inactive: > 10 µM
69 | Cc1cccc(C(O)c2ccccn2)c1O (stereo unspecified) | inactive: > 100 µM
70 | Cc1ccc(S(=O)(=O)N/N=C/C(Br)=C(/Br)C(=O)O)cc1 | inactive: 18.5 µM
71 | CCCC1NC(=O)C(CC(C)C)NC(=O)c2cccc(n2)C(=O)NC(CC(C)C)C(=O)NC(CCC)C(=O)NC(C(=O)OC)CCCCNC1=O (stereo unspecified) | inactive: 38.7 µM
72 | COc1cnc2cc(C(=O)O)c3c([N+](=O)[O-])cccc3c2c1 | inactive: > 100 µM

Row | Structure (SMILES) | GI50
73 | CCC(=O)c1c(NOC2OC(COC(C)=O)C(OC(C)=O)C(OC(C)=O)C2OC(C)=O)nc(OC)n(C)c1=O (stereo unspecified) | inactive: > 100 µM
74 | CC1NCCC(CC(=O)O)C1CC(=O)O (stereo unspecified) | inactive: > 100 µM
75 | CC(=O)Oc1ccc2c(=O)c(C(C)=O)coc2c1 | inactive: > 100 µM
76 | O=C1N=C2Sc3ccc4ccccc4c3N2C1=O | inactive: 26.1 µM
77 | Cc1sc(Cc2ccccc2)nc1-c1ccc(N)cc1 | inactive: 42 µM
78 | COC(=O)C1CCCCCCCCCCC12SCCCS2 (stereo unspecified) | inactive: 23.7 µM
79 | Cn1cnnc1SC(F)(F)c1nc2ccccc2o1 | inactive: > 100 µM
80 | Cc1[nH]nc(C(=O)N/N=C/c2ccccc2Cl)c1/N=N\N(C)C | inactive: > 66.7 µM
81 | O=C(NC12CC3CC(CC(C3)C1)C2)n1cnc2c(Cl)ncnc21 | inactive: 30.9 µM
82 | CC(=O)NC1=C(NCC(C)C)C(=O)c2ccccc2C1=O | inactive: > 100 µM
83 | COC(=O)c1c(CC(=O)OC(C)C)cc2n(c1=O)Cc1c-2nc2ccccc2c1OC | inactive: > 100 µM
84 | N/N=C(\Cc1ccccc1)NN=C(N)N | inactive: > 100 µM
85 | CCOC(=O)NC(Nc1ccc(F)cc1F)(C(F)(F)F)C(F)(F)F | inactive: > 100 µM
86 | COc1cc2c3c(c1OC)C(=O)C(=O)C1=C3N(CCC1)CC2 | inactive: 34.4 µM
87 | COS(=O)c1cc(Cl)cc(Cl)c1O (stereo unspecified) | inactive: > 100 µM
88 | CC(=O)C1(O)CCC2(O)C3(O)CC=C4CC(O)CCC4(C)C3CC(OC(=O)c3ccc(O)cc3)C12C (stereo unspecified) | inactive: > 100 µM
89 | COC(=O)C1=C(OC(=O)/C(=C/c2ccccc2)c2ccccc2)C(C(=O)OC)[C@@]2(O)[C@@H](C(=O)OC)[C@H](C)C[C@@H]1[C@@H]2C(=O)OC (stereo partly specified) | inactive: > 100 µM
90 | O=C1Oc2ccccc2C(=O)/C1=C\Nc1nc(-c2ccccc2)cs1 | inactive: 36.9 µM
91 | Nc1nc(Nc2ccccc2)sc1C(=O)c1c[nH]c2ccccc12 | inactive: 10.6 µM
92 | O=C1OC(CC(=O)c2ccc(Cl)c(Cl)c2)C(Cl)=C1Cl (stereo unspecified) | inactive: > 100 µM
93 | C[N+](C)(C)C(C1=CCCC1=O)c1ccccc1 (stereo unspecified) | inactive: > 100 µM
94 | Nc1ccn(C2OC(COP(=O)(O)O)C(O)C2O)c(=O)n1 (stereo unspecified) | inactive: 74.6 µM
95 | NS(=O)(=O)c1ccc(/N=N/c2ccc(O)c(O)c2)cc1 | inactive: 22.4 µM
96 | Cc1ccc(Nc2nc(O)c3[nH]cnc3n2)cc1CO | inactive: 22 µM

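Dose response: 5 concentrations. Exposure: 48 h. Format: 96-well plates. Endpoint: linear interpolation; highest concentration if not reached. The concentration for 50% growth inhibition is given as GI50.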 Calls of active or inactive are those of the source. Rule as the data show it: active = GI50 up to about 1.1 µM and inactive = higher.
